Screen size: about 310,000 compounds; about 2,200 (0.71%) showed an effect of 50% or more. The effect is printed as a negative number. This is one part of the list.
Target: human ether-à-go-go-related gene (hERG) potassium channel (human, UniProt Q12809)
Assay: primary screen, population patch clamp on CHO cells stably expressing hERG

Sequence of human ether-à-go-go-related gene (hERG) potassium channel (Q12809 whole entry, looked up): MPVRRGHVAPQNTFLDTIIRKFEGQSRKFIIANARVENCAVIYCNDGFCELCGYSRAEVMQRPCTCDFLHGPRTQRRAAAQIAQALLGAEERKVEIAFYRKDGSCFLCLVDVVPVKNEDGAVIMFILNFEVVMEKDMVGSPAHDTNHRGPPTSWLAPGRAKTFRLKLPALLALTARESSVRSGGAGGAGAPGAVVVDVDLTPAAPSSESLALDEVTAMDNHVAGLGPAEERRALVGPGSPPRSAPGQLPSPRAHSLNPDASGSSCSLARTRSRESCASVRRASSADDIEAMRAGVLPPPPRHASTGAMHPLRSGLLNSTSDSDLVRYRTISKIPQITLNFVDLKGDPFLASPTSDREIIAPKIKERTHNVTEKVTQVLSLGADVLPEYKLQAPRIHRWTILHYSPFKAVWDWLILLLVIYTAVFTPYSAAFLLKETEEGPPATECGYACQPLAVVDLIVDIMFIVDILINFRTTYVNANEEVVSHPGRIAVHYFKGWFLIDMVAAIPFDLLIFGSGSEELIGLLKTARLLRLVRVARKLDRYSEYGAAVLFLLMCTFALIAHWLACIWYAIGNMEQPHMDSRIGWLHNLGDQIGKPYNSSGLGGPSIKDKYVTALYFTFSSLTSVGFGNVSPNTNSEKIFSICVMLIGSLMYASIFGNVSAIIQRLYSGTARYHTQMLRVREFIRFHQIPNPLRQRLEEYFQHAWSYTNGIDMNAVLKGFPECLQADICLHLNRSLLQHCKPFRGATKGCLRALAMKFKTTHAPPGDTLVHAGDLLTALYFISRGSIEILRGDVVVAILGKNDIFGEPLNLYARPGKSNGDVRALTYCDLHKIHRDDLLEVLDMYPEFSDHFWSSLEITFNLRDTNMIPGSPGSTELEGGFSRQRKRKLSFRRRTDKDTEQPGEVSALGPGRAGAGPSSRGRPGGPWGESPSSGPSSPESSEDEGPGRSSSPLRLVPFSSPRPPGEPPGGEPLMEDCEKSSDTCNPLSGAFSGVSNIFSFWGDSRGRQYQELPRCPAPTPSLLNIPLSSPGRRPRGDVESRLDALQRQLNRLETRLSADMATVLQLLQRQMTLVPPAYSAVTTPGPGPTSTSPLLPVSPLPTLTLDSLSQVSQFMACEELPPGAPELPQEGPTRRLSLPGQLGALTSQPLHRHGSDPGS

SMILES	hERG current change (%, negative = inhibition) at 1uM
CSc1ccccc1OCc1cc(C(=O)N2CCC[C@H]2C(N)=O)no1	12.1%
O=C(O)COc1ccc(/C=N/NC(=O)COc2nsnc2N2CCOCC2)cc1	13.5%
CCOc1cc2[nH]c(=S)n(CCCC(=O)NCc3ccco3)c(=O)c2cc1OCC	-0.751%
COc1ccc(C(=O)Nn2c(C3CCC3)nc3ccccc3c2=O)c(OC)c1	0.925%
CCN(CC)CCNC(=O)c1cc2ccccc2nc1Cl	22.8%
Cc1cc(C(=O)N/N=C/c2sc(N3CCOCC3)nc2-c2ccccc2)c(C)o1	13.4%
FC(F)(F)c1cc(Oc2ccccc2)nc(-c2ccccn2)n1	-4.27%
COc1ccc(-c2cc(C(=O)N3CCN(Cc4ccc5c(c4)OCO5)CC3)on2)cc1OC	10.4%
COc1ccc2oc(C)c(C(=O)Cn3ccnc3)c2c1	-15%
COc1ccc(CCN(Cc2cccs2)S(=O)(=O)c2ccc(S(=O)(=O)N(C)C3CCCCC3)cc2)cc1OC	10.9%
COc1ccc(C(=O)NC2CCCc3c2cnn3-c2ccccc2F)cc1OC (stereo not drawn)	7.97%
CC1(c2nnc(Cc3ccccc3)o2)CC(c2ccccc2[N+](=O)[O-])=NO1 (stereo not drawn)	0.886%
CC1CCC(NC(=O)CCS(=O)(=O)c2ccc3c(c2)CC(C)N3C(=O)C2CC2)CC1 (stereo not drawn)	19.5%
COc1ccc(CCNC(=O)c2cc(Cl)nc3ccccc23)cc1	17.6%
COc1ccc(S(=O)(=O)N2CCCN(Cc3cccc(F)c3)CC2)cc1	4.73%
O=C1OC(Oc2ccccc2)(c2ccccc2)c2ccccc21 (stereo not drawn)	-12%
NC(=O)C1CCN(C(=O)C23CC4CC(CC(C4)C2)C3)CC1	15.4%
COCCNC(=O)Cn1cc(S(=O)(=O)N2CCN(c3ccccc3F)CC2)c2ccccc2c1=O	5.24%
CCc1ccc(C(C)NC(=S)NCc2ccc(F)cc2)cc1 (stereo not drawn)	10.1%
CCCN(CC(=O)Nc1ccccc1C)C(=O)COC(=O)CSc1ccc([N+](=O)[O-])cc1	11.9%
CC(=O)c1cccc(S(=O)(=O)N2CCCC(c3nc4c(nnn4Cc4ccc(C)cc4)c(=O)[nH]3)C2)c1 (stereo not drawn)	15.5%
CC(C)c1ccc(NC(=O)C(c2ccccc2)N2CCC3(CC2)OCCO3)cc1 (stereo not drawn)	-11.7%
CCc1ccc(-c2nc(CSCC(=O)NCCCN3CCCC3=O)c(C)o2)cc1	-4.12%

SMILES	hERG current change (%, negative = inhibition) at 1uM
CC(=O)NN1C(=O)c2ccc(Oc3ccc([N+](=O)[O-])cc3)cc2C1=O	0.938%
O=C(Nc1nc(-c2cccs2)c(C(=O)C(F)(F)F)s1)c1ccccc1	11.1%
CC(C)(C)OC(=O)N[C@@H](Cc1ccccc1)C(=O)N[C@@H](CO)[C@H](O)[C@@H]1C[C@@H]1C(=O)N1CCCC1	16.3%
C=CCNC(=O)C1CCC(=O)N1S(=O)(=O)c1ccc(C)cc1 (stereo not drawn)	20%
Cc1nnc(SCCN2CCOCC2)n1-c1cccc(Cl)c1.O=C(O)C(=O)O	-0.94%
O=C(CCNC(=O)OCc1ccccc1)NC1CCCCC1	11%
O=S(=O)([N-]c1nc2ccccc2nc1-[n+]1ccccc1)c1ccccc1	15.3%
COc1ccc(N/N=C/c2c(C(=O)O)ccc3ccccc23)cc1	7.87%
CCn1c2ccc(C)cc2c2nnc(NN)nc21	3.56%
O=C1CSC(c2ccc(Cl)c(Cl)c2)N1c1nccs1 (stereo not drawn)	13.7%
CCOC(=O)N/N=C\c1sccc1C	5.04%
Cc1ccc(C(=O)N/N=C\c2cc(Br)c(Br)o2)cn1	13.2%
FC(F)(F)c1cc(-c2ccco2)nc(NCc2cccnc2)n1	7.98%
COc1ccc(OCc2nnc(SCC(N)=O)n2-c2ccccc2OC)cc1	3.69%
Cl.O=C(O)c1ccc(Nc2ncnc3scc(-c4ccccc4)c23)cc1	20.4%
O=C(CCNC(=O)c1ccccc1)Nc1nc2ccccc2s1	4.88%
Cc1cccc(C)c1NC(=O)CNC(=O)c1cccnc1	11.3%
O=C(N/N=C/c1ccc2c(c1)OCO2)c1cccc2ccccc12	9.57%
Cc1ccc(C(=O)N2CCOCC2)cc1Cl	10.2%
COc1ccc(CN(C)C2CCN(C)CC2)cc1OC	17.1%
O=C(CC1CCCCC1)NCC1CCCO1 (stereo not drawn)	-1.45%
C(#Cc1ccc(C#CCN2CCOCC2)cc1)CN1CCOCC1	1.28%
